Test results taken from PubChem BioAssay AID662 (National Center for Advancing Translational Sciences (NCATS), 2007).
The whole screen tested about 71,000 compounds, of which about 1,800 (2.5%) were called active. This list was built around the results that the source calls inconclusive (neither active nor inactive); the mix of calls is not that of the screen. Calls come from the whole dose curve; as a rule, active = well fitted activation curve with a large enough effect in the signal ratio, with a control signal flat (not every such curve was filed as active); inconclusive = small, poorly fitted or top-dose-only effect, or effect the other way, or a change in a side signal; inactive = flat fitted curve, though single readings scatter; the % refers to the signal ratio. Potencies beside an inconclusive call are fits to weak or partial responses and may not hold up.
Potency is the fitted concentration of half-maximal effect; tags give direction and shape of the fitted curve.

Test: Cell signaling CRE-BLA (Fsk stim); for activity change, negative = inhibition: % of control where 0% means no effect
Conditions: CHO CRE-bla reporter (cAMP response element driving beta-lactamase), forskolin EC10, beta-lactamase ratio; activity change, negative = inhibition: at 38.2 µM (top of the series) unless noted
In short: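 Beta-lactamase reporter under a cAMP responsive element in CHO cells; compounds tested in titration series against EC10 NKH 477, 3 h at 37 °C. Read-out: CCF4 FRET ratio 460nm/530nm (excitation 405nm) giving %Activity, fitted to AC50.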
For Cc1nn(-c2ccccc2)c2c1C(O)n1c(nc3ccccc31)S2 (centres undefined), the activity change, negative = inhibition was inconclusive: 14.7%.
For CCN(CC)S(=O)(=O)c1ccc(/C(O)=C(\C#N)c2nc3ccccc3n2C)cc1, the Potency was “inactive”.
For CCCS(=O)(=O)N1CCC(C(=O)NCCN(C)Cc2ccccc2)CC1, the activity change, negative = inhibition was inconclusive: 7.45%.
In the case of Cc1cccc(Nc2nc(NCc3ccco3)nc(N3CCOCC3)n2)c1, the Potency is reported as “inactive”.
In the case of CC(=O)c1cc(-c2ccc(F)cc2)n(CC(=O)NCc2cccs2)c1C, the activity change, negative = inhibition is reported as inconclusive: -15.9%.
For CCCC1=C(C(=O)OCC)C(c2ccc(N(C)C)cc2)n2ncnc2N1 (centres undefined), the activity change, negative = inhibition was inconclusive: 14.3%.
In the case of O=C(/C=N/O)NCc1ccncc1, the activity change, negative = inhibition is reported as inconclusive: -10.5%.
In the case of CN(C)c1ccc(-c2nc3ccccc3n2C)cc1, the Potency is reported as “inactive”.
For NC(=O)c1oc2ccccc2c1NC(=O)c1ccc(F)cc1, the activity change, negative = inhibition was inconclusive: 0.031%.
With O=C(CN1CCN(c2ccccn2)CC1)Nc1ccc(Oc2ccccc2)cc1 the activity change, negative = inhibition was inconclusive: 22.5%.
With O=C1C(=O)c2ccccc2C(O)=C1C(CCc1ccccc1)C1=C(O)c2ccccc2C(=O)C1=O the Potency was inconclusive: 5.01 µM [rising, single point].
In the case of OC(COc1ccc(OCc2ccccc2)cc1)CN1CCCCC1 (centres undefined), the Potency is reported as “inactive”.
With CCC(=O)Nc1ccc(-c2nnc(SCC(=O)Nc3nccs3)n2C)cc1 the Potency was “inactive”.
With CCNc1ncc2nc(-c3cccs3)c(=O)n(Cc3cccc(OC)c3)c2n1 the Potency was inconclusive: 2.51 µM [rising, partial curve].
With CCOc1ccc(OCC)c(NC(=O)CSc2nc3ccccc3c(=O)n2C)c1 the Potency was inconclusive: 5.01 µM [rising, partial curve].
For CC(=O)OCC(=O)[C@@]1(OC(C)=O)[C@H](C)C[C@H]2[C@@H]3C[C@H](F)C4=CC(=O)C=C[C@@]4(C)[C@]3(F)[C@H](O)C[C@@]21C, the Potency was “inactive”.
For CCOC(=O)c1sc(NC(=O)CCn2nnc3ccccc32)c(C(=O)OCC)c1C, the Potency was inconclusive: 5.01 µM [rising, partial curve].
With Cc1cc(C)nc(SCCc2cccc[n+]2C)n1 the activity change, negative = inhibition was inactive: 10.2% [at 7.6 µM].
With NS(=O)(=O)c1ccc(CCNC(=O)COC(=O)C2CCCN2C(=O)c2cccs2)cc1 (centres undefined) the Potency was inconclusive: 3.98 µM [falling, single point].
With CCCc1nc2ccccc2c(C(=O)OC2CCOC2=O)c1CC (centres undefined) the Potency was inconclusive: 2 µM [falling, partial curve].
In the case of Cc1cccc(CNc2ccnc(-c3ccoc3)n2)c1, the activity change, negative = inhibition is reported as inconclusive: -15.9%.
For COc1cc(OC)c(OC)cc1CNc1cc(C)ccc1OC, the Potency was “inactive”.
For CCCCn1c(NCc2ccccn2)nc2ccccc21, the activity change, negative = inhibition was inconclusive: 4.96%.
For Cc1cc(C)c(Cn2c(=O)n(CCCC(=O)NCc3ccco3)c(=O)c3ccccc32)c(C)c1, the Potency was active: 10 µM.
In the case of Cc1cc(C)c2c(=O)[nH]n(C(C)C)c2n1, the Potency is reported as inconclusive: 10 µM [rising, partial curve].
In the case of c1ccc(CSc2nnc(-c3ccco3)c(-c3ccco3)n2)cc1, the activity change, negative = inhibition is reported as inconclusive: 28.3%.
With COC(=O)CNC(=O)[C@@]1(C)C=C[C@@H](Cc2ccccc2)N1C(C)=O the Potency was “inactive”.
For COCC(=O)Nc1nnc(Cc2ccc(OC)c(OC)c2)s1, the activity change, negative = inhibition was inconclusive: 29.2%.
In the case of COCc1ccc2oc(C(=O)O)cc2c1, the Potency is reported as “inactive”.
With CSc1nc(-c2ccccc2)nc2c1COC(C)(C)C2 the activity change, negative = inhibition was inconclusive: 20%.
In the case of O=C(c1csnn1)N1CCC[C@@]2(CCN(c3ccccn3)C2)C1, the activity change, negative = inhibition is reported as inconclusive: 2.59%.
In the case of O=C(Oc1ccccc1)N1CCC2(CC1)CN(c1ccccn1)C2, the activity change, negative = inhibition is reported as inconclusive: -5.2%.
In the case of CCn1c(/C=N/n2cnnc2)nc2ccccc21, the Potency is reported as “inactive”.
In the case of c1coc(-c2nnc3n2C2(CCCC2)Cc2ccccc2-3)c1, the Potency is reported as “inactive”.
With CCCCN(C)C(=O)c1sc2ncn(CC)c(=O)c2c1C the Potency was inconclusive: 10 µM [rising, partial curve].
In the case of CC(=O)Nc1ccc(N2C(=O)CSC2c2ccc(F)cc2)cc1 (centres undefined), the activity change, negative = inhibition is reported as inconclusive: -27.8%.
With Cc1c(C(=O)N2CCOCC2)sc2ncnc(N3CCc4ccccc4C3)c12 the Potency was inconclusive: 7.94 µM [rising, partial curve, poor fit].
With Cc1ccc(NC(=O)c2nnn(-c3cc(C)cc(C)c3)c2N)cc1 the Potency was inconclusive: 10 µM [rising, partial curve, poor fit].
For O=c1c(-c2ccc(F)cc2)nc2cnc(Nc3ccccc3)nc2n1C1CC1, the activity change, negative = inhibition was inconclusive: 8.98%.
For O=C(O)c1ccc(COc2c(F)c(F)cc(F)c2F)o1, the activity change, negative = inhibition was inconclusive: 9.86%.
For CCCn1c(CCC(=O)O)ccc1-c1ccc(F)cc1, the activity change, negative = inhibition was inconclusive: -11.9%.
With CCOC(=O)Cc1csc(NC(=O)c2csc3c2CCCC3)n1 the activity change, negative = inhibition was inconclusive: 35.7%.
With CN(C)S(=O)(=O)c1cccc(C(=O)N2CCN(Cc3ccccc3)CC2)c1 the Potency was inconclusive: 5.01 µM [falling, single point].
With COc1cc(NC(=O)c2cccs2)c(C(=O)OCC(=O)NCc2ccco2)cc1OC the Potency was inconclusive: 12.6 µM [rising, single point].
For O=C(Oc1ccccc1)N1CCC2(CC1)CCN(c1ccncc1)CC2, the Potency was “inactive”.
In the case of COc1ccc(CNc2nc3c(c(=O)n(Cc4ccc(Cl)cc4)c(=O)n3C)n2C)cc1, the activity change, negative = inhibition is reported as inconclusive: 18.7%.
With CCn1cc(C(=O)NCC2COc3ccccc3O2)c2cc(OC)c(OC)cc2c1=O (centres undefined) the Potency was active: 1.58 µM.
With CCN1CCN(C(c2cc3cccc(C)c3[nH]c2=O)c2nnnn2Cc2ccccc2)CC1 (centres undefined) the Potency was “inactive”.
In the case of CC(C)N1CCc2c(sc(NC(=O)c3ccc(S(=O)(=O)N4CCOCC4)cc3)c2C(N)=O)C1, the Potency is reported as “inactive”.
With CNC(=O)[C@]1(C)C[C@H]1[C@H](NC(=O)[C@]1(C)C[C@H]1[C@H](NC(=O)[C@]1(C)C[C@H]1[C@H](NC(=O)[C@]1(C)C[C@H]1[C@H](NC(=O)OCc1ccccc1)c1ccccc1)c1ccccc1)c1ccccc1)c1ccccc1 the Potency was “inactive”.
With COc1ccc(CCNC(=O)c2ccco2)cc1 the Potency was inconclusive: 5.01 µM [rising, single point].
For CCC(=O)Nc1c(OC(=O)CC)ccc2c(C)cc(=O)oc12, the activity change, negative = inhibition was inconclusive: 7.66%.
In the case of Cc1ccc2c(CC(=O)NC3=NCCS3)coc2c1, the activity change, negative = inhibition is reported as inconclusive: 6.1%.
In the case of COc1ccc(C(=O)Nc2ccc3c(c2)OCO3)cc1OC, the Potency is reported as inconclusive: 10 µM [rising, partial curve].
In the case of COc1ccc(NC(=O)CC2C(=O)N(c3cccc(OC)c3)C(=O)N2C2CCCCC2)cc1 (centres undefined), the activity change, negative = inhibition is reported as inconclusive: -15.6%.
With Cn1c(-c2ccc(F)cc2)cnc1SCC(=O)N1CCCCC1 the Potency was inconclusive: 15.8 µM [rising, single point].
In the case of O=C(Nc1cnn(Cc2ccc(F)cc2)c1)c1cc2nc(-c3ccco3)cc(C(F)(F)F)n2n1, the Potency is reported as “inactive”.
With Cc1ccc2c(c1)cc(CN(Cc1cccs1)C(=O)c1ccco1)c1nnnn12 the Potency was inconclusive: 10 µM [rising, partial curve].
In the case of Cc1c(NC(=O)C(C)Sc2nc3ccccc3c(=O)n2CCO)c(=O)n(-c2ccccc2)n1C (centres undefined), the Potency is reported as “inactive”.
In the case of Cc1cc(N2CCN(c3ccccn3)CC2)n2c(nc3ccccc32)c1C#N, the Potency is reported as inconclusive: 1.58 µM [rising, partial curve].
In the case of O=c1c(-c2ccccc2)nc2cnc(N3CCNCC3)nc2n1C1CC1, the Potency is reported as inconclusive: 5.01 µM [rising, partial curve].
With Cc1c(NC(=O)c2ccccc2F)c(=O)n(-c2ccccc2)n1C the activity change, negative = inhibition was inconclusive: -8.84%.
In the case of Cc1nn(Cc2ccccc2Cl)c(C)c1NC(=O)c1noc2c1CCCCC2, the Potency is reported as inconclusive: 10 µM [falling, single point].
With Cc1cc(C)cc(-n2nnc(C(=O)NCc3ccc4c(c3)OCO4)c2N)c1 the Potency was inconclusive: 5.01 µM [rising, partial curve].
For CCOC(=O)c1c(C)noc1CP(=O)(c1ccccc1)c1ccccc1, the Potency was “inactive”.
In the case of CN1CCN(C(=O)c2cnn(-c3ccccc3)c2NC(=O)c2ccccc2F)CC1, the Potency is reported as “inactive”.
In the case of O[C@@H]1C2CCCC1[C@]1(O)CCCCC1C2 (some centres undefined), the Potency is reported as inconclusive: 15.8 µM [rising, single point].
In the case of O=C(OCC1COc2ccccc2O1)c1c(F)cccc1F (centres undefined), the activity change, negative = inhibition is reported as inconclusive: -15.9%.
With COc1ccccc1Oc1coc2cc(OC(=O)N3CCOCC3)ccc2c1=O the Potency was “inactive”.
With O=C(NC1CC1)c1ccc(-c2nc3ccccc3s2)s1 the Potency was “inactive”.
For CCN(Cc1cc2ccccc2[nH]c1=O)C(=O)c1cccnc1, the Potency was inconclusive: 10 µM [rising, partial curve].
For CC(C)n1nc(C(=O)NCCc2ccc(S(N)(=O)=O)cc2)c2ccccc2c1=O, the Potency was inconclusive: 10 µM [rising, single point].
For Cc1nn(-c2ccccc2)c(Cl)c1C(=O)N1CCN(c2ncnc3c2cnn3-c2ccccc2)CC1, the activity change, negative = inhibition was inconclusive: -26.3%.
With CCn1c(=O)cc(OCC(=O)N2CCN(c3cccc(C(F)(F)F)c3)CC2)c2ccccc21 the Potency was inconclusive: 31.6 µM [falling, single point].
In the case of CCN(CC)c1ccc(C2CC(=O)NC3=C2C(=O)CC(C)(C)C3)cc1 (centres undefined), the activity change, negative = inhibition is reported as inconclusive: -8.57%.
For O=C(CSc1ccc2nnc(-c3cccnc3)n2n1)NCC1CCCO1 (centres undefined), the Potency was inconclusive: 12.6 µM [rising, single point].
For O=C(c1cnn2c(C(F)F)cc(C3CC3)nc12)N1CCc2ccccc2C1, the Potency was inconclusive: 10 µM [rising, partial curve].
In the case of Cc1cc(C(=O)CSc2nncs2)c(C)n1-c1ccc2c(c1)OCO2, the Potency is reported as “inactive”.
With Cn1c(NCC2CCCO2)nc2c1c(=O)n(Cc1ccccc1)c(=O)n2C (centres undefined) the activity change, negative = inhibition was inconclusive: 11.4%.
